This note sets out measurements from PubChem BioAssay (NCI).

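Tested at 5 concentrations; 48 h exposure; 96-well plates; endpoints linearly interpolated, else capped at highest concentration. GI50 = concentration required for 50% inhibition of growth. TGI is the concentration that stops growth completely.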

In this test the test system is NCI-H322M lung. Briefly: inhibition of tumour cell growth, NCI panel, 48 h.

As for `Cc1ccc2nc(/C(=C/c3ccc(/C=C(\NC(=O)c4ccccc4)c4nc5ccc(C)cc5[nH]4)c(C)c3)NC(=O)c3ccccc3)[nH]c2c1`, the TGI was 86.9 µM.

In turn, `COC1C(OC(=S)Nc2ccccc2)c2ccccc2N1C(C)=O` (stereo unspecified) registered a TGI of more than 100 µM. As to `COc1cc(N=Nc2ccc(O)c3ncccc23)c2ncccc2c1`, the GI50 is 7.28 µM and the TGI is more than 100 µM.

Turning to `CN(C)C(=S)/N=c1\sn(C)/c(=N\C(=S)N(C)C)n1C`, the TGI is more than 100 µM. Same read-out and setting: the value for `CC1(C)[C@@H]2CC[C@@]1(C)CN(CCC[N+](C)(C)C)C2` was more than 100 µM. As for `CC(=O)ON1CCCC(P(=O)(OCCSC(=O)C(C)(C)C)OCCSC(=O)C(C)(C)C)C1=O` (stereo unspecified), the GI50 is 2.06 µM and the TGI was 16.2 µM.

As to `Cc1c(O)nc(-n2[nH]c3c(c2=O)CCCC3)[nH]c1=O`, the TGI was more than 100 µM. Still for that read-out and setting: then `CCCCCCCCCCCC[S+](C)C`, with 27 µM. On to `CCOc1ccc(/C=C2\N=C(c3ccc([N+](=O)[O-])cc3)OC2=O)cc1`, for which the TGI is more than 100 µM.
